Test results from the BET-seq Pho4 binding data (Le et al. 2018).
The other results are listed elsewhere or left out. Values were computed here from the reads of four pooled replicates and scatter widely.

molecular target: T1, Pho4 (S. cerevisiae) (UniProt P07270); assay: relative binding free energy (BET-seq); higher = weaker binding; settings: reference: library average
T1 sequence: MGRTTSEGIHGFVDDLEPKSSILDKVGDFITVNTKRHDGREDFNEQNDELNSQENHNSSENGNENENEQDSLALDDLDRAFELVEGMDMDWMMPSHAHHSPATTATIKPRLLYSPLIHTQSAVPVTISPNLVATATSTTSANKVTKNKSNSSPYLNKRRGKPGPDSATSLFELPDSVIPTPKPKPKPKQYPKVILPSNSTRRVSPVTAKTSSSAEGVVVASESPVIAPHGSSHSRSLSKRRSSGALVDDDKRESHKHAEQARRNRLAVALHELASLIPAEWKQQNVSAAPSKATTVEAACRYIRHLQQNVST

Sequence | relative binding free energy
CTTTGCACGTGGCGTT | -0.03 kcal/mol
TATGGCACGTGATTTC | 0.03 kcal/mol
GAAGCCACGTGGGGTG | -0.17 kcal/mol
GTGTGCACGTGAAAGC | 0.21 kcal/mol
CGAGACACGTGGGGTA | -0.07 kcal/mol
TATGACACGTGCCGGT | 0.03 kcal/mol
CTATGCACGTGGGGGT | -0.19 kcal/mol
TATTTCACGTGGTAGC | 0.32 kcal/mol
TAGGTCACGTGTCAAT | 0.11 kcal/mol
CGTTACACGTGTTTAA | 0.28 kcal/mol
TTATTCACGTGTATTG | 0.2 kcal/mol
AGAGGCACGTGTGGGG | -0.08 kcal/mol
TTAGGCACGTGTGCCA | 0.03 kcal/mol
TGATTCACGTGTATGG | 0.27 kcal/mol
ATGCACACGTGTGTTT | -0.07 kcal/mol
AAACACACGTGGTGGG | -0.1 kcal/mol
ATATTCACGTGCGTAG | 0.12 kcal/mol
GGAGACACGTGGGTTT | -0.04 kcal/mol
TTTATCACGTGTGCGG | 0.08 kcal/mol
AGTAACACGTGGAGGT | 0.02 kcal/mol
CGGTTCACGTGGGGTC | 0.18 kcal/mol
AAGCGCACGTGAGGTT | 0.19 kcal/mol
ACCTTCACGTGGGGGG | 0.19 kcal/mol
AGGTGCACGTGTTGTG | 0.05 kcal/mol
GGTTGCACGTGGGTGG | -0.09 kcal/mol
TCGTTCACGTGGAAGT | 0.4 kcal/mol

Sequence | relative binding free energy
TGGAGCACGTGCACGT | -0.01 kcal/mol
GTTGTCACGTGTACGA | 0.13 kcal/mol
TGGTGCACGTGGGGCA | -0.1 kcal/mol
CGAGGCACGTGTTAGG | -0.08 kcal/mol
AGACGCACGTGGGTTG | -0.18 kcal/mol
AAAGGCACGTGAAAGT | 0.18 kcal/mol
GGGTGCACGTGCGTGT | -0.04 kcal/mol
CCGGTCACGTGGGTGT | -0.07 kcal/mol
TGACTCACGTGGAGTT | 0.32 kcal/mol
CTGGACACGTGTGGTG | 0.1 kcal/mol
CGGAGCACGTGTTTAA | 0.04 kcal/mol
TGTAACACGTGAGTTA | 0.22 kcal/mol
CGGATCACGTGGTTTG | -0.12 kcal/mol
AGTGGCACGTGGAGGA | -0.09 kcal/mol
GTGTGCACGTGGCCAG | -0.2 kcal/mol
CAGTACACGTGGGTGG | -0.09 kcal/mol
AGGGTCACGTGATCAG | 0.29 kcal/mol
TGAATCACGTGTTGGC | 0.22 kcal/mol
CGTTTCACGTGTGTTA | 0.22 kcal/mol
AGGAGCACGTGTCAGT | -0.1 kcal/mol
AAGATCACGTGGTGAG | 0.04 kcal/mol
GGAGTCACGTGAAGCG | 0.33 kcal/mol
AGGGTCACGTGCTTGG | -0.02 kcal/mol
GTAGGCACGTGAGCTT | 0.1 kcal/mol
TAAGTCACGTGGTAGG | 0.04 kcal/mol
TAGTACACGTGAGAAT | 0.39 kcal/mol

Sequence | relative binding free energy
GGGAACACGTGTAGTG | 0.14 kcal/mol
TTATGCACGTGCTTAG | -0.15 kcal/mol
GTCAGCACGTGTTTTA | -0.03 kcal/mol
TACAGCACGTGAGTTG | 0.15 kcal/mol
GCGTACACGTGAGTTG | 0.38 kcal/mol
GCTTACACGTGATGGT | 0.24 kcal/mol
GATGTCACGTGTTGCA | 0.15 kcal/mol
TTTGACACGTGTAGGA | 0 kcal/mol
TGGGCCACGTGGATGT | -0.01 kcal/mol
TTTTCCACGTGAGATG | 0.45 kcal/mol
ACGTTCACGTGTGTGA | 0.17 kcal/mol
TTGGTCACGTGGTCAT | 0.05 kcal/mol
TAGCACACGTGTGTTT | 0.27 kcal/mol
AGGAACACGTGACGGG | 0.16 kcal/mol
TGTTGCACGTGCGCGG | -0.13 kcal/mol
ATTCGCACGTGTTCGG | 0.01 kcal/mol
TATGTCACGTGAAGAG | 0.18 kcal/mol
GGAATCACGTGTAGTT | 0.15 kcal/mol
TTCGACACGTGTTTAA | -0.01 kcal/mol
CGTATCACGTGAGTTG | 0.24 kcal/mol
GGAAGCACGTGTGGAA | -0.03 kcal/mol
ATGGACACGTGAGTGA | 0.3 kcal/mol
TGTTGCACGTGTGTTG | 0.09 kcal/mol
ACACGCACGTGAGGGG | 0.01 kcal/mol
AGATACACGTGAGGAT | 0.33 kcal/mol
GTCTTCACGTGTTAAG | 0.38 kcal/mol

Sequence | relative binding free energy
TTGATCACGTGGTTAG | 0.15 kcal/mol
TTTATCACGTGTAGTC | 0.28 kcal/mol
TGGGACACGTGGAAGG | 0.1 kcal/mol
GGTTCCACGTGAATGT | 0.27 kcal/mol
GGAGTCACGTGTATAT | -0.01 kcal/mol
TATTTCACGTGGGGAG | 0.12 kcal/mol
AAGGACACGTGGGAAG | -0.02 kcal/mol
GGGGCCACGTGCTGGT | -0.19 kcal/mol
AGGTGCACGTGCTTAT | -0.16 kcal/mol
AAGATCACGTGCTGTT | 0.14 kcal/mol
GGAATCACGTGAAAGG | 0.48 kcal/mol
ATTGTCACGTGCTCGG | -0.01 kcal/mol
ATTTGCACGTGTGTGC | 0.05 kcal/mol
TGTGCCACGTGGGAGG | -0.15 kcal/mol
TGATACACGTGATTGA | 0.32 kcal/mol
GTTTGCACGTGTGGAC | 0.11 kcal/mol
GGTGGCACGTGATAGA | -0.1 kcal/mol
TGGAGCACGTGGAATG | 0.07 kcal/mol
GTTATCACGTGATGCT | 0.22 kcal/mol
TAGAGCACGTGGGGAA | -0.11 kcal/mol
TTCTGCACGTGGTTAT | -0.1 kcal/mol
TGAGGCACGTGAATGC | 0.1 kcal/mol
CAAGGCACGTGGGGGT | -0.18 kcal/mol
TTGGGCACGTGAGATC | 0.09 kcal/mol
TGTTTCACGTGCGGTA | 0.29 kcal/mol
GTTGGCACGTGTACTT | -0.07 kcal/mol

Sequence | relative binding free energy
TGCATCACGTGTAATG | 0.09 kcal/mol
GAGAGCACGTGGTTGT | -0.04 kcal/mol
GGTTCCACGTGTCGGT | 0.06 kcal/mol
GGATACACGTGGGTTT | 0.09 kcal/mol
TTCTACACGTGATTGG | 0.25 kcal/mol
GATTGCACGTGGGGGC | 0.02 kcal/mol
ATGGGCACGTGAGAAA | 0.14 kcal/mol
CGATACACGTGTGTTG | -0.13 kcal/mol
TTTGTCACGTGCGAAA | 0.11 kcal/mol
TGTAGCACGTGCGTAA | -0.24 kcal/mol
AATGGCACGTGATCTG | -0.04 kcal/mol
ATGTTCACGTGAGTAA | 0.33 kcal/mol
TGCAGCACGTGAGGGG | 0.05 kcal/mol
GTAGTCACGTGTGTTC | 0.14 kcal/mol
TTTCACACGTGTGTTA | 0.1 kcal/mol
GTAGCCACGTGGGGGT | -0.21 kcal/mol
GGTAACACGTGTGAAT | 0.07 kcal/mol
TGTCGCACGTGTGCAT | 0.11 kcal/mol
ACAGGCACGTGTAGGT | -0.1 kcal/mol
GGCCTCACGTGATGGT | 0.33 kcal/mol
GGGGACACGTGTTATT | 0.02 kcal/mol
ATTTTCACGTGGCGCG | 0.19 kcal/mol
GGATGCACGTGGGTTC | 0.02 kcal/mol
GTGGTCACGTGAGGCA | 0.27 kcal/mol
TTCAGCACGTGGGTTG | -0.08 kcal/mol
CGAAACACGTGGTGGT | 0.09 kcal/mol

Sequence | relative binding free energy
ATACGCACGTGGTTGG | -0.29 kcal/mol
AGAGTCACGTGAAGAT | 0.3 kcal/mol
ATGGTCACGTGATTTA | 0.32 kcal/mol
AAGGTCACGTGTTATA | 0.11 kcal/mol
CGTATCACGTGGTTAG | 0.06 kcal/mol
GGTAGCACGTGAATAG | 0.33 kcal/mol
TATGGCACGTGAGTGA | 0.08 kcal/mol
ATGAGCACGTGCGCGT | -0.18 kcal/mol
TTAGTCACGTGTAATC | 0.17 kcal/mol
AATAACACGTGGTAGT | 0 kcal/mol
AATGACACGTGTTTTT | 0.02 kcal/mol
GGTTTCACGTGGGTAT | 0.31 kcal/mol
GGGTGCACGTGTGGCA | -0.01 kcal/mol
ATTGACACGTGGTTCT | -0.05 kcal/mol
GTGGACACGTGGTGTA | -0.11 kcal/mol
AGAGGCACGTGCGGGA | -0.26 kcal/mol
CAGGGCACGTGCGGAG | -0.13 kcal/mol
CTAAGCACGTGGGTGG | -0.31 kcal/mol
TGGTTCACGTGAGTGC | 0.48 kcal/mol
TTTTCCACGTGGGTCG | 0.02 kcal/mol
CGGTTCACGTGAGGAG | 0.37 kcal/mol
TTAAACACGTGATTAA | 0.27 kcal/mol
CGGGTCACGTGTTAAG | 0.17 kcal/mol
AATTGCACGTGTTTAT | -0.01 kcal/mol
TCGATCACGTGGGTGG | 0.12 kcal/mol
GTGAGCACGTGGTCTA | -0.13 kcal/mol

Sequence | relative binding free energy
TGTAGCACGTGGAGTA | -0.01 kcal/mol
AAAGTCACGTGTGTAA | -0.01 kcal/mol
TGTATCACGTGATGCA | 0.15 kcal/mol
AATGGCACGTGAGTCA | 0.14 kcal/mol
TGGATCACGTGATCTG | 0.26 kcal/mol
GATTGCACGTGTGTGT | 0.14 kcal/mol
GGCGGCACGTGGTCGC | 0.08 kcal/mol
TTATCCACGTGTGGGG | -0.02 kcal/mol
GGCTTCACGTGCTGTG | 0.23 kcal/mol
TGCGCCACGTGTGTTA | -0.06 kcal/mol
TATGTCACGTGAATAT | 0.29 kcal/mol
GGCTACACGTGCTGGT | 0.26 kcal/mol
GGAGGCACGTGGGACT | -0.15 kcal/mol
GTTAGCACGTGGCATT | 0.13 kcal/mol
AAGGGCACGTGAGCGA | 0.09 kcal/mol
AGGGGCACGTGAAGGA | 0.19 kcal/mol
TTAAACACGTGTGGGT | 0 kcal/mol
TCTGTCACGTGGGCGT | 0 kcal/mol
TTTATCACGTGGGTGT | 0.07 kcal/mol
TGATCCACGTGGGGGG | -0.11 kcal/mol
ATCATCACGTGTTGTT | 0.02 kcal/mol
GGTTACACGTGTATCG | 0.25 kcal/mol
TTGGACACGTGGGGGG | 0 kcal/mol
TTTATCACGTGAGATA | 0.4 kcal/mol
GCGGCCACGTGGGGGT | -0.14 kcal/mol
GTGGACACGTGAGTGC | 0.26 kcal/mol

Sequence | relative binding free energy
TAAATCACGTGTATGG | 0.07 kcal/mol
GTTGGCACGTGATGTT | 0.11 kcal/mol
GGTGGCACGTGCTGGT | -0.07 kcal/mol
TGGGCCACGTGAATTG | 0.27 kcal/mol
TGGAACACGTGCGGTA | -0.01 kcal/mol
TGTAACACGTGTCAGT | -0.06 kcal/mol
TAAGTCACGTGGGAGC | 0.03 kcal/mol
ATTATCACGTGTTATA | 0.26 kcal/mol
TTTGGCACGTGTGTAT | -0.04 kcal/mol
TTACGCACGTGTTGAT | 0 kcal/mol
ATAACCACGTGTGTGG | -0.13 kcal/mol
TGTGACACGTGGATCG | -0.06 kcal/mol
GGGCGCACGTGGGCAG | -0.18 kcal/mol
TGGTGCACGTGAATCT | 0.3 kcal/mol
TAGAACACGTGGGTGA | -0.13 kcal/mol
TGGGCCACGTGGTTGT | -0.13 kcal/mol
CTTAACACGTGTGGGG | 0.06 kcal/mol
GAGTGCACGTGTGGCG | 0.07 kcal/mol
TTTCACACGTGTTTTT | 0.27 kcal/mol
TATCGCACGTGCGTGT | -0.07 kcal/mol
TAGGTCACGTGCGTTT | 0.07 kcal/mol
GGGTGCACGTGTGATA | 0.12 kcal/mol
CATTGCACGTGGTAAG | 0.11 kcal/mol
TCGATCACGTGGTCGG | 0.03 kcal/mol
AGGTGCACGTGCAGTG | -0.08 kcal/mol
ACGTGCACGTGGAGTA | -0.04 kcal/mol

Sequence | relative binding free energy
GTCGCCACGTGTGGGG | -0.02 kcal/mol
ATGGACACGTGTATAA | 0.18 kcal/mol
TTGTTCACGTGGTGAT | 0.37 kcal/mol
AGTGCCACGTGGGCGT | -0.33 kcal/mol
AGGATCACGTGGGATT | 0.18 kcal/mol
GTGGTCACGTGCACTG | 0.06 kcal/mol
CTGGTCACGTGGGCTA | 0.05 kcal/mol
TAAAGCACGTGTTTTG | -0.16 kcal/mol
ATCGGCACGTGGTAGA | -0.19 kcal/mol
GGTTTCACGTGTCGCT | 0.16 kcal/mol
ATAGGCACGTGAGGAA | 0.05 kcal/mol
ATTATCACGTGGGCAG | 0 kcal/mol
GTACACACGTGGTTTG | -0.17 kcal/mol
GACGGCACGTGGGGGA | -0.21 kcal/mol
GATGTCACGTGCAGGA | 0.24 kcal/mol
TTCGTCACGTGAATGG | 0.37 kcal/mol
GAAGTCACGTGGGTGC | 0.07 kcal/mol
TAATTCACGTGTTAAT | 0.2 kcal/mol
ATTTACACGTGGATGG | -0.01 kcal/mol
TGATTCACGTGTGAGC | 0.2 kcal/mol
TTGAACACGTGGACTT | 0.28 kcal/mol
GGGGACACGTGAATGT | 0.14 kcal/mol
